Test results from the supplement of paper PMC4967469.
IC50 is the fitted dose that halves viability relative to control wells, and lower means more sensitive; a limit (>, <) means that the fit lies beyond the doses tested. AUC sums up the same curve from the lowest dose to the 256-fold higher top dose; values near 1 show little effect. The top dose, if marked as inferred, is not printed in the source and was worked back from the curve model.

Compound: O=C1NC(=NCc2cccs2)S/C1=C\c1ccc2ncccc2c1 [RO-3306]
Experiment: Viability of human cancer cell lines after 72 h of drug (GDSC screen)
Settings: top dose 5 µM; top dose inferred
Description: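 Human cancer cell lines in 384-well plates, medium with 10% serum, drug for 72 h over a 256-fold dose range (nine 2-fold or five 4-fold steps up to the top dose). Adherent lines were fixed and stained with the nucleic acid dye Syto60, suspension lines read with resazurin; signal relative to control wells, capped at 0 and 100%. One two-parameter sigmoid per drug and line, fitted in a mixed model over all curves with the slope shared within a line.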

Row | Cell Line | AUC | IC50
1 | NB17 (neuroblastoma, adherent) | 0.984 | > 5 µM
2 | NB69 (neuroblastoma, adherent) | 0.981 | > 5 µM
3 | NB(TU)1-10 (neuroblastoma, adherent) | 0.951 | > 5 µM
4 | NB-4 (acute myeloid leukaemia, suspension) | 0.989 | > 5 µM
5 | NCC010 (kidney, adherent) | 0.89 | > 5 µM
6 | NCC021 (kidney, adherent) | 0.954 | > 5 µM
7 | NCI-H23 (lung adenocarcinoma, adherent) | 0.864 | 4.31 µM
8 | NCI-H28 (mesothelioma, adherent) | 0.915 | > 5 µM
9 | NCI-H64 (small cell lung carcinoma, suspension) | 0.988 | > 5 µM
10 | NCI-H69 (small cell lung carcinoma, suspension) | 0.986 | > 5 µM
11 | NCI-H82 (small cell lung carcinoma, suspension) | 0.99 | > 5 µM
12 | NCI-H146 (small cell lung carcinoma, suspension) | 0.992 | > 5 µM
13 | NCI-H187 (small cell lung carcinoma, suspension) | 0.987 | > 5 µM
14 | NCI-H209 (small cell lung carcinoma, suspension) | 0.92 | > 5 µM
15 | NCI-H211 (small cell lung carcinoma, adherent) | 0.982 | > 5 µM
16 | NCI-H226 (lung squamous cell carcinoma, adherent) | 0.955 | > 5 µM
17 | NCI-H322M (lung adenocarcinoma, suspension) | 0.964 | > 5 µM
18 | NCI-H345 (small cell lung carcinoma, suspension) | 0.99 | > 5 µM

Row | Cell Line | AUC | IC50
19 | NCI-H358 (lung adenocarcinoma, adherent) | 0.908 | > 5 µM
20 | NCI-H446 (small cell lung carcinoma, semi-adherent) | 0.986 | > 5 µM
21 | NCI-H460 (large cell lung carcinoma, adherent) | 0.988 | > 5 µM
22 | NCI-H508 (large intestine, semi-adherent) | 0.976 | > 5 µM
23 | NCI-H510A (small cell lung carcinoma, semi-adherent) | 0.983 | > 5 µM
24 | NCI-H520 (lung squamous cell carcinoma, adherent) | 0.986 | > 5 µM
25 | NCI-H522 (lung adenocarcinoma, adherent) | 0.977 | > 5 µM
26 | NCI-H524 (small cell lung carcinoma, suspension) | 0.986 | > 5 µM
27 | NCI-H526 (small cell lung carcinoma, suspension) | 0.989 | > 5 µM
28 | NCI-H596 (lung adenocarcinoma, adherent) | 0.982 | > 5 µM
29 | NCI-H630 (large intestine, adherent) | 0.988 | > 5 µM
30 | NCI-H647 (non-small cell lung carcinoma, adherent) | 0.984 | > 5 µM
31 | NCI-H650 (lung adenocarcinoma, adherent) | 0.986 | > 5 µM
32 | NCI-H661 (large cell lung carcinoma, adherent) | 0.936 | > 5 µM
33 | NCI-H720 (lung carcinoid, suspension) | 0.992 | > 5 µM
34 | NCI-H727 (lung carcinoid, adherent) | 0.863 | > 5 µM
35 | NCI-H747 (large intestine, adherent) | 0.915 | > 5 µM
36 | NCI-H810 (large cell lung carcinoma, adherent) | 0.956 | > 5 µM
